{
  "source": "paper PMC4336329",
  "about": "(PLoS ONE, 2015)",
  "note": "The campaign covered roughly 310,000 compounds. About 14,000 (4.5%) showed an effect of 50% or more. Effects have a minus sign here. This is one part of the list.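 Also: peak tail current of the secondary pulse compared with the same well before compound.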",
  "data": [
    {"molecular_target": "human ether-à-go-go-related gene (hERG) potassium channel (human, UniProt Q12809)", "sequence (Q12809 whole entry, looked up)": "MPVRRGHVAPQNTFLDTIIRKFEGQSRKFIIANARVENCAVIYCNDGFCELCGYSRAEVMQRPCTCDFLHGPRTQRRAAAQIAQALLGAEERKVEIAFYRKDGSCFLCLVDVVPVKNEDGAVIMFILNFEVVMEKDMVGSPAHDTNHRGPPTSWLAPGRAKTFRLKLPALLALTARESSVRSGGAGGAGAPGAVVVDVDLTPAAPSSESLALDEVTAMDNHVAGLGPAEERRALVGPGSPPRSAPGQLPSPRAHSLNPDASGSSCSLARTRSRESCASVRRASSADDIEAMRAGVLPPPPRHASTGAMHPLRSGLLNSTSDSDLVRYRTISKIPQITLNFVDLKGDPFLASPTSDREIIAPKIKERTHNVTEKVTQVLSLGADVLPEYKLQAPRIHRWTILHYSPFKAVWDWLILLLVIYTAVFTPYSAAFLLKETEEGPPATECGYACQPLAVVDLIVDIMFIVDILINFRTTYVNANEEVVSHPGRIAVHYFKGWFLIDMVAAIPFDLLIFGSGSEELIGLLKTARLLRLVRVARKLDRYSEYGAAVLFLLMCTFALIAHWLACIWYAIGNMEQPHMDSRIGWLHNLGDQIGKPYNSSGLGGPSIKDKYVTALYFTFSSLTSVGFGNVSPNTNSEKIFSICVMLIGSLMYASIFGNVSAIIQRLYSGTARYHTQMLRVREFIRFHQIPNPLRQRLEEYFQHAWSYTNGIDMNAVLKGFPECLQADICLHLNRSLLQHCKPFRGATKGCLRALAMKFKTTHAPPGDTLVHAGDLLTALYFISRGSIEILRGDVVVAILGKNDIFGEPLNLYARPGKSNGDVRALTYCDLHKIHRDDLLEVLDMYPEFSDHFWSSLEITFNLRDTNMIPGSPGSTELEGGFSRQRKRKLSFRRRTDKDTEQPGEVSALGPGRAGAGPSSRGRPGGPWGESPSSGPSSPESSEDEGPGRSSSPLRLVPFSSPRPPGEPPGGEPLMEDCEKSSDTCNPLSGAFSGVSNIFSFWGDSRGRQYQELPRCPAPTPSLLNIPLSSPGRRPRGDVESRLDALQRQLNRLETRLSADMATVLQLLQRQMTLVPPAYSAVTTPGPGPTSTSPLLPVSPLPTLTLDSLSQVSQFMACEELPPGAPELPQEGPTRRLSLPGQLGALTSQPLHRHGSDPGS", "assay": "primary screen, population patch clamp on CHO cells stably expressing hERG", "units": {"hERG current change (%, negative = inhibition) at 10uM": "%"}, "values": [
      {"smiles": "CC(Sc1nc(-c2ccccc2)cc(C(F)(F)F)n1)C(=O)NCCN1CCOCC1", "note": "(stereo not shown)", "hERG current change (%, negative = inhibition) at 10uM": -12.1},
      {"smiles": "Cc1ccc(C(=O)c2cc3ccccc3o2)cc1", "hERG current change (%, negative = inhibition) at 10uM": 5.76},
      {"smiles": "CN(Cc1cccc(F)c1)C(=O)c1ccccc1Sc1ccccc1C#N", "hERG current change (%, negative = inhibition) at 10uM": -12.3},
      {"smiles": "COc1cc(OC)c(/C=N/NC(=O)c2ccc(Cn3nc([N+](=O)[O-])cc3C)cc2)c(OC)c1", "hERG current change (%, negative = inhibition) at 10uM": -37.1},
      {"smiles": "CC(=O)c1ccc(S(=O)(=O)Nc2cccc(-c3ccc(N4CCOCC4)nn3)c2)cc1", "hERG current change (%, negative = inhibition) at 10uM": -20},
      {"smiles": "Cc1ccccc1NC(=O)/C(=C\\c1cccs1)NC(=O)c1ccco1", "hERG current change (%, negative = inhibition) at 10uM": -7.17},
      {"smiles": "Oc1ccc(NCc2ccccc2OCc2ccccc2F)cc1", "hERG current change (%, negative = inhibition) at 10uM": -5.12},
      {"smiles": "O=C(NC1CCCCC1)N1CCN(C(c2ccccc2)c2ccccc2)CC1", "hERG current change (%, negative = inhibition) at 10uM": -8.83},
      {"smiles": "CCOC(=O)C1CCN(C(C(=O)NC2CCCCC2)c2ccc(OC)cc2)CC1", "note": "(stereo not shown)", "hERG current change (%, negative = inhibition) at 10uM": 1.79},
      {"smiles": "COc1ccccc1CN(Cc1nc2ccccc2c(=O)[nH]1)C(=O)Nc1ccccc1", "hERG current change (%, negative = inhibition) at 10uM": -7.21},
      {"smiles": "CC(C)(C)c1nc(SCC(=O)NNC(=O)c2ccccc2)c2ccccc2n1", "hERG current change (%, negative = inhibition) at 10uM": -1.13},
      {"smiles": "O=C(Nc1ccc2c(c1)OCO2)O[C@@H]1C[C@H]2CCC(=O)N3CC[C@@H](C1)[C@@H]23", "hERG current change (%, negative = inhibition) at 10uM": 31.3},
      {"smiles": "CC1CCCCN1CCNC(=O)CCc1nnc2n(Cc3ccccc3)c(=O)c3ccccc3n12", "note": "(stereo not shown)", "hERG current change (%, negative = inhibition) at 10uM": -51.6},
      {"smiles": "Cc1ccc(NC(=O)COC(=O)CNC(=O)c2ccc3ccccc3c2)c([N+](=O)[O-])c1", "hERG current change (%, negative = inhibition) at 10uM": -2.69},
      {"smiles": "Cc1cnc(C(=O)Nc2ccc(F)c(F)c2)cn1", "hERG current change (%, negative = inhibition) at 10uM": 8.1},
      {"smiles": "CCOC(=O)C1C(c2cccnc2)NC(=O)NC1(O)C(F)(F)F", "note": "(stereo not shown)", "hERG current change (%, negative = inhibition) at 10uM": 10.5},
      {"smiles": "Cc1ccc(NC(=O)CCNC(=O)c2ccc(Cl)cc2)nc1", "hERG current change (%, negative = inhibition) at 10uM": 7.38},
      {"smiles": "O=C(NCCc1ccccc1)[C@@H]1CC=C[C@@H]2CCN(Cc3ccccc3)C(=O)[C@@H]21", "hERG current change (%, negative = inhibition) at 10uM": -1.71},
      {"smiles": "CCCCN(C(=O)c1ccc(N2CCCC2=O)cc1)c1c(N)n(Cc2ccccc2)c(=O)[nH]c1=O", "hERG current change (%, negative = inhibition) at 10uM": 7.41},
      {"smiles": "O=C(Nc1nnc(-c2ccccc2Cl)s1)c1ccccc1F", "hERG current change (%, negative = inhibition) at 10uM": 10.9},
      {"smiles": "CCNC(=S)N/N=C/c1cccc(OCc2c(F)cccc2Cl)c1", "hERG current change (%, negative = inhibition) at 10uM": 0.567},
      {"smiles": "COc1cc(SC)ccc1C(=O)NCCNC(=O)c1nonc1N", "hERG current change (%, negative = inhibition) at 10uM": -6.81},
      {"smiles": "O=[N+]([O-])c1ccc(N2CCN(c3ccc(Cl)nn3)CC2)cc1NC1CC1", "hERG current change (%, negative = inhibition) at 10uM": -9.76},
      {"smiles": "Cc1cc(N2CCCC2)nc2ccc(NC(=S)NCCCN3CCC(C)CC3)cc12", "hERG current change (%, negative = inhibition) at 10uM": -29.6},
      {"smiles": "CCCOC1CCCN(C(=O)c2ccc(OC3CCN(C(=O)CCOC)CC3)cc2)C1", "note": "(stereo not shown)", "hERG current change (%, negative = inhibition) at 10uM": 10.1},
      {"smiles": "C=CCn1c(SCC(=O)N2CC(=O)Nc3ccccc32)nc2scc(-c3cccs3)c2c1=O", "hERG current change (%, negative = inhibition) at 10uM": 2.42},
      {"smiles": "C/C(N)=C(/C#N)C(=O)CSc1cc(Cl)ccc1Cl", "hERG current change (%, negative = inhibition) at 10uM": -2.07},
      {"smiles": "CCOc1cc([C@@H]2C[C@H]3CN(c4ccccc4)C(=O)[C@]34CCCN24)ccc1OC", "hERG current change (%, negative = inhibition) at 10uM": -10.4},
      {"smiles": "COCCCNC(=S)N1CCCN(c2nc3c(C)c(C)ccc3cc2C#N)CC1", "hERG current change (%, negative = inhibition) at 10uM": -24.7},
      {"smiles": "O=C(NN(C(=O)c1ccccc1)c1ccccc1)c1ccccc1", "hERG current change (%, negative = inhibition) at 10uM": -27.8},
      {"smiles": "CCOC(=O)C1CCN(Cc2cnc(Oc3ccc(N)cc3)s2)CC1", "hERG current change (%, negative = inhibition) at 10uM": -10.6},
      {"smiles": "COC(=O)C(NC(=O)CN1C(=O)c2ccccc2C1=O)c1ccc(O)c(OC)c1", "note": "(stereo not shown)", "hERG current change (%, negative = inhibition) at 10uM": 4.53},
      {"smiles": "Cc1sc(NC(=O)CN(C(=O)c2ccccc2F)C2CCCC2)c(C(N)=O)c1C", "hERG current change (%, negative = inhibition) at 10uM": -20.8},
      {"smiles": "Cc1nc(SC(C)C(=O)Nc2cccc(C(F)(F)F)c2)c2c(C)c(C(=O)O)sc2n1", "note": "(stereo not shown)", "hERG current change (%, negative = inhibition) at 10uM": 9.27},
      {"smiles": "Cc1cccc(C)c1N(Cc1ccccc1F)S(C)(=O)=O", "hERG current change (%, negative = inhibition) at 10uM": 13.5},
      {"smiles": "CCOc1ccccc1N1Cc2cc(C)c(C)cc2C1", "hERG current change (%, negative = inhibition) at 10uM": -34.2},
      {"smiles": "CCn1nnnc1SCC(=O)NCc1ccc2c(c1)OCO2", "hERG current change (%, negative = inhibition) at 10uM": 8.16},
      {"smiles": "N#Cc1ccc(COc2cccc3cccnc23)cc1", "hERG current change (%, negative = inhibition) at 10uM": -41},
      {"smiles": "CCOCc1nnc(NC(=O)CCc2ccccc2)s1", "hERG current change (%, negative = inhibition) at 10uM": 8.85},
      {"smiles": "CN(c1ccccc1)S(=O)(=O)c1cccc(NC(=O)Cc2c(F)cccc2Cl)c1", "hERG current change (%, negative = inhibition) at 10uM": -7.15},
      {"smiles": "O=C(Nc1ccc(F)cc1F)c1cc(-c2ccc3c(c2)OCO3)on1", "hERG current change (%, negative = inhibition) at 10uM": -13.5},
      {"smiles": "CC(=O)NC(=S)Nc1sc2c(c1C(N)=O)CCC(C)C2", "note": "(stereo not shown)", "hERG current change (%, negative = inhibition) at 10uM": 0.576},
      {"smiles": "CC(C)CCNC1=NCCCCC1", "hERG current change (%, negative = inhibition) at 10uM": -3.32}
    ]}
  ]
}
